# From PubChem BioAssay AID904 (National Center for Advancing Translational Sciences (NCATS), 2007)
# Out of some 55,000 compounds screened, about 530 (0.96%) were called active. Inconclusive results, whose numbers are uncertain, are shown with a selection of clear calls. Calls come from the whole dose curve; as a rule, active = well fitted cell-killing curve with a large enough effect; inconclusive = small, poorly fitted or top-dose-only effect; inactive = no such curve, though single readings can be large or run the other way. A potency beside an inconclusive call is a rough fit, not a confirmed value.
# Assay: qHTS Screen for Compounds that Selectively Target Cancer Cells with p53 Mutations: Cytotoxicity of p53 Null Cells at the Nonpermissive Temperature; note: nearly all actives have a fitted effect of over 50% in size;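 for activity, negative = cell killing: 0% = DMSO only and -100% = full killing by 100 µM tamoxifen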
# Conditions: H1299 p53-null (neo) cells, 39C, ATPlite viability, 24 h; activity, negative = cell killing: at 46.1 µM (top of the series)
# Method in brief: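 Luminescent ATP signal reported cell survival after H1299 lines (neo, p53 null; or p53 A138V) received up to 46 uM compound and 24 hr incubation at 39C.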
# Potency is the fitted concentration of half-maximal effect; tags give direction and shape of the fitted curve.
Structure (SMILES),Potency,"activity, negative = cell killing"
Cc1cccn2c(=O)c3cc(C(=O)NCc4ccccc4)c(=N)n(CCOCCO)c3nc12,inactive,–
CCc1ccccc1NC(=O)CSc1nc(-c2ccccc2OC)nc2c1Cc1c(CO)cnc(C)c1O2,"inconclusive: 35.5 µM [cytotoxic, single point]",–
O=C(Nc1nc2ccc(F)cc2s1)c1nc(S(=O)(=O)Cc2ccccc2)ncc1Cl,"inconclusive: 12.6 µM [cytotoxic, single point]",–
NS(=O)(=O)c1ccc(NC(=O)c2ccc3c(c2)CCN3S(=O)(=O)c2ccccc2)cc1,"inconclusive: 31.6 µM [cytotoxic, single point]",–
CCn1ccc2cc(S(=O)(=O)N3CCC(C(=O)NCCc4ccc(C)cc4)CC3)ccc21,"inconclusive: 0.224 µM [cytotoxic, full curve, poor fit]",–
Cc1ccc(N2C(=O)c3[nH]nc(-c4ccc(Cl)cc4)c3C2c2ccc(F)cc2)cc1 (stereo not drawn),"inconclusive: 12.6 µM [cytotoxic, single point]",–
COc1ccc(C(=O)N2CCc3cc(OC)c(OC)cc3C2COc2ccc3c(C)cc(=O)oc3c2)c(OC)c1 (stereo not drawn),"inconclusive: 0.0398 µM [cytotoxic, full curve, poor fit]",–
CC(C)(C)OC(=O)N1CCC(c2c(C(=O)NCCN3CCC(Cc4ccccc4)CC3)cnn2-c2ccccc2)CC1,"inconclusive: 15.8 µM [cytotoxic, single point]",–
Cc1ccc(-c2cc(N)on2)cc1,–,inactive: 9.86% [at 1.84 µM]
CCCCOc1ccc(C(=O)N(Cc2ccc(C(C)C)cc2)C2CCS(=O)(=O)C2)cc1 (stereo not drawn),"inconclusive: 35.5 µM [cytotoxic, single point]",–
COc1ccc(OCC(=O)NCC(c2ccc(Cl)cc2)N2CCCCC2)cc1 (stereo not drawn),"inconclusive: 10 µM [cytotoxic, partial curve, poor fit]",–
COc1cc(OC)cc(-n2nnc(-c3nc(-c4ccccc4Cl)no3)c2N)c1,"inconclusive: 20 µM [cytotoxic, single point]",–
CCOc1ccc(C(=O)Nc2ccc3nc(SCc4ccccc4)sc3c2)cc1,inactive,–
COc1ccc(S(=O)(=O)Nc2cc3c(cc2NCc2ccccc2)n(C)c(=O)n3C)cc1OC,"inconclusive: 10 µM [cytotoxic, partial curve, poor fit]",–
CCOc1ccccc1NC(=O)Nc1nnc(N2CCCCCC2)s1,"inconclusive: 12.6 µM [cytotoxic, partial curve, poor fit]",–
CCOc1ccccc1Nc1cc(-c2ccccc2)nc(C)n1,"inconclusive: 3.16 µM [cytotoxic, full curve, poor fit]",–
COc1cc(C(=O)Nc2ccc3oc(-c4ccccc4)nc3c2)cc(OC)c1OC,"inconclusive: 15.8 µM [cytotoxic, single point]",–
COc1ccc(-c2nc(SCC(=O)Nc3ccc4c(c3)OCO4)c(-c3ccc(OC)cc3)[nH]2)cc1,"inconclusive: 12.6 µM [cytotoxic, partial curve]",–
CCc1c(C)nc2nncn2c1Nc1ccc(C(C)C)cc1,inactive,–
CCC1=Nc2cc(C(=O)NC3CCCC3)ccc2Sc2ccc(Br)cc21,"inconclusive: 2.51 µM [cytotoxic, partial curve, poor fit]",–
COc1ccc(-c2nc(-c3ccccc3)c(-c3ccc(O)cc3)[nH]2)cc1,"inconclusive: 35.5 µM [cytotoxic, single point]",–

Structure (SMILES),Potency,"activity, negative = cell killing"
CC(=O)Nc1ccc2nc(-c3cc(C)ccc3C)[nH]c2c1,inactive,–
CCc1cccc(-n2nnc(-c3nsc(NC(=O)c4cccs4)n3)c2C)c1,active: 10 µM,–
Cc1ccc(OCc2ccc(-c3nc(C#N)c(NCc4cccnc4)o3)o2)cc1,"inconclusive: 0.794 µM [cytotoxic, full curve, poor fit]",–
CCOC(=O)c1c(C)c(-c2ccccc2)n(CC(=O)Nc2cc(C)ccc2OC)c1C,inactive,–
COc1ccccc1N1CCN(CCCNC(=O)c2cnn(-c3cccc(Cl)c3)c2C2CCN(C(=O)OC(C)(C)C)CC2)CC1,"inconclusive: 35.5 µM [cytotoxic, single point]",–
COCCn1c(=NC(=O)c2ccc3c(c2)OCCO3)sc2cc(C(=O)OC)ccc21,"inconclusive: 0.0063 µM [cytotoxic, full curve, poor fit]",–
COc1ccccc1N1CCN(S(=O)(=O)c2c(C)sc3ncn(CC(=O)N(C)c4ccc(Cl)cc4)c(=O)c23)CC1,"inconclusive: 0.005 µM [cytotoxic, full curve, poor fit]",–
Cc1ccc(CNC(=O)CCCn2c(=O)c3ccccc3n(CC(=O)Nc3ccc(C)c(C)c3)c2=O)cc1,"inconclusive: 12.6 µM [cytotoxic, single point]",–
CC1CCN(S(=O)(=O)c2ccc3c(c2)N(CC(=O)NCCc2ccccc2)C(=O)CO3)CC1,"inconclusive: 31.6 µM [cytotoxic, single point]",–
CC1=CC(=C(C#N)c2nc3ccccc3s2)C=C(C)N1c1ccc(F)cc1F,inactive,–
COc1cccc(NC(=O)c2ccc3c(c2)CCN3S(C)(=O)=O)c1,"inconclusive: 15.8 µM [cytotoxic, single point]",–
Cc1ccc(C)c(OCCn2c(CCNC(=O)C3CCCCC3)nc3ccccc32)c1,–,inconclusive: -32.7% [cytotoxic]
CCN(CC)CCCNc1sc(S(=O)(=O)c2ccccc2)nc1S(=O)(=O)c1ccc(Cl)cc1,"inconclusive: 2.51 µM [cytotoxic, single point]",–
CCn1c(=O)c2cc(C(=O)NCCCN3CCC(C)CC3)sc2c2ccccc21,"inconclusive: 11.2 µM [cytotoxic, partial curve]",–
COc1ccc2nc(C)cc(Nc3ccc(Cl)c(Cl)c3)c2c1,active: 12.6 µM,–
CCOc1ccc(-n2c(SCC(=O)NC3CCCCC3)nc3c([nH]c4ccccc43)c2=O)cc1,inactive,–
COCCNc1oc(/C=C/c2ccc(F)cc2)nc1C#N,"inconclusive: 1.58 µM [cytotoxic, full curve, poor fit]",–
Cc1ccc(OCc2ccc(-c3nc(C#N)c(NCc4ccccc4Cl)o3)o2)cc1,"inconclusive: 12.6 µM [cytotoxic, partial curve]",–
Cc1ccc(Cn2c(C(=O)O)c(CNC3CCCC3)c3ccc(C)cc32)cc1,"inconclusive: 0.1 µM [cytotoxic, full curve, poor fit]",–
CCCCn1c(NCc2ccc(N(C)C)cc2)nc2ccccc21,"inconclusive: 25.1 µM [cytotoxic, single point]",–
O=C(Nc1ccc(Cl)c(C(F)(F)F)c1)C1CCN(S(=O)(=O)c2cccc3nonc23)CC1,"inconclusive: 12.6 µM [cytotoxic, partial curve]",–

Structure (SMILES),Potency,"activity, negative = cell killing"
Cc1cccc(N2CCN(C(=O)Cn3nc(Cc4cccnc4)c4ccccc4c3=O)CC2)c1C,"inconclusive: 31.6 µM [cytotoxic, single point]",–
CCOc1ccccc1CNC(=O)c1cccn1-c1nnc(N2CCCC2)s1,"inconclusive: 0.0794 µM [cytotoxic, full curve, poor fit]",–
COc1ccc(-c2onc(C)c2C)cc1S(=O)(=O)NCC1CCN(Cc2cccc(F)c2)CC1,"inconclusive: 17.8 µM [cytotoxic, single point]",–
Cc1ccc(NC(=O)Cn2c(=O)n(CCC(=O)NCc3ccccc3Cl)c(=O)c3ccccc32)cc1,"inconclusive: 6.31 µM [cytotoxic, partial curve]",–
Cc1ccc(-n2ncc3c(Nc4ccccc4C)ncnc32)cc1,"inconclusive: 15.8 µM [cytotoxic, single point]",–
CC(=O)Nc1ccc(NS(=O)(=O)c2c(C)nc3sccn3c2=O)cc1,"inconclusive: 0.0398 µM [cytotoxic, full curve]",–
CSc1ccc(CNC(=O)CCn2c(=O)c3cccn3c3ccc(F)cc32)cc1,inactive,–
Cc1nc2sc(C(N)=O)c(N)c2c(-c2ccc(Br)cc2)c1C(=O)Nc1ccc(Cl)cc1,"inconclusive: 31.6 µM [cytotoxic, single point]",–
O=C(CSc1nnc2ccc3ccccc3n12)c1ccc(F)cc1,"inconclusive: 3.98 µM [cytotoxic, full curve]",–
Cc1ccc(C(=O)Nc2onc3c2CCCC3)cc1,active: 5.01 µM,–
CCc1ccccc1Nc1nc2ccccc2n2cnnc12,"inconclusive: 1 µM [cytotoxic, partial curve]",–
COc1ccc(C(=O)Nc2noc3ccccc23)cc1,active: 6.31 µM,–
O=C(NCCc1nc2ccccc2n1CCCOc1ccc(Cl)cc1)C1CCCCC1,"inconclusive: 10 µM [cytotoxic, partial curve]",–
N=c1n(CCN2CCCCC2)c2ccccc2n1CC(O)COc1ccc(Cl)cc1Cl (stereo not drawn),active: 12.6 µM,–
CSc1ccc(CCNC(=O)CN2C(=O)c3cccnc3Oc3ccc(C)cc32)cc1,inactive,–
COc1cccc(-c2nc(CS(=O)(=O)CC(=O)Nc3c(C)cc(C)cc3C)c(C)o2)c1,"inconclusive: 15.8 µM [cytotoxic, single point]",–
CN(C)S(=O)(=O)c1ccc(C(=O)NC2CC(=O)N(c3ccc4c(c3)OCCO4)C2)cc1 (stereo not drawn),inactive,–
O=C(NCCN1CCN(c2cccc(Cl)c2)CC1)C1COc2ccccc2C1 (stereo not drawn),"inconclusive: 0.126 µM [cytotoxic, full curve]",–
Cc1ccc(F)c(NC(=O)Nc2ccc3snnc3c2)c1,inactive,–
CCOC(=O)c1ccc(N2C(=O)c3n[nH]c(-c4ccco4)c3C2c2ccc(O)c(OC)c2)cc1 (stereo not drawn),"inconclusive: 15.8 µM [cytotoxic, single point]",–
CCOc1ccc(OCC)c(NC(=O)CCC(=O)N2CCOc3ccccc32)c1,"inconclusive: 31.6 µM [cytotoxic, partial curve, poor fit]",–
